Data on 43 compounds can be found in article PMC4336329 (PLoS ONE, 2015).

Structures are written as SMILES. Out of some 310,000 compounds screened, about 14,000 (4.5%) showed an effect of 50% or more. The effect is printed as a negative number. The list shows a part of the results.
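Also: peak tail current of the secondary pulse compared with the same well before compound.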

Chain of human ether-à-go-go-related gene (hERG) potassium channel (Q12809 whole entry, looked up): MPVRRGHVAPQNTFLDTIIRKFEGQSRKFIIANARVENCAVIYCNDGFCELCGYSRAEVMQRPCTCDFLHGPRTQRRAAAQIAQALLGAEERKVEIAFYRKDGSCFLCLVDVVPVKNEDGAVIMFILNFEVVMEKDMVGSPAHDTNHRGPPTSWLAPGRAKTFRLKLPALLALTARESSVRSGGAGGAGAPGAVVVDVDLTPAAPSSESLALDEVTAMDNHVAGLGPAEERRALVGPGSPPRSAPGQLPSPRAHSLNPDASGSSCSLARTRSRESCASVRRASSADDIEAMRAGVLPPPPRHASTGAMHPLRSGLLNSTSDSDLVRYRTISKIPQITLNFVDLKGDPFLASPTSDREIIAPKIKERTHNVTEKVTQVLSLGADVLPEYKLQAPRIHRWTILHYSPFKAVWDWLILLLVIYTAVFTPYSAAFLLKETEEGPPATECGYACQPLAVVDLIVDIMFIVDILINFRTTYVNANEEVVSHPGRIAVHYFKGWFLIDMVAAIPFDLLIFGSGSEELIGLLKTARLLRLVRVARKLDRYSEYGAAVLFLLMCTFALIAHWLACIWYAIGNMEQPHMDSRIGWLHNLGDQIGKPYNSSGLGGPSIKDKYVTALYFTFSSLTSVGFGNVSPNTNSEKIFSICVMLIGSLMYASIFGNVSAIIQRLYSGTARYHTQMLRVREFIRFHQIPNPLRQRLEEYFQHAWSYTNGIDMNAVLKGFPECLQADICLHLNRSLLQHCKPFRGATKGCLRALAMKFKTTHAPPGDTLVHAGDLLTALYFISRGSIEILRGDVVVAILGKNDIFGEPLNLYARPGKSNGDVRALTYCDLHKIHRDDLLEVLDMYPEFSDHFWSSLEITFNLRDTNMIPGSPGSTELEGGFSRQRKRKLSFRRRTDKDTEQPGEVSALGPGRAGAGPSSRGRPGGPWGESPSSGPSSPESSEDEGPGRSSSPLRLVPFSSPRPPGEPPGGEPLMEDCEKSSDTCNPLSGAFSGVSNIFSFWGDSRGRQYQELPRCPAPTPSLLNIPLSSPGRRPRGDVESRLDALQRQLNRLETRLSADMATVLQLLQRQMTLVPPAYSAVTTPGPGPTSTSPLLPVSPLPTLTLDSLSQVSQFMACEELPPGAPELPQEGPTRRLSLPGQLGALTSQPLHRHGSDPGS

This experiment addresses human ether-à-go-go-related gene (hERG) potassium channel (human, UniProt Q12809). As to the kind of experiment: primary screen, population patch clamp on CHO cells stably expressing hERG.
Turning to `CC(C)(C)OC(=O)NCCCCCc1nnc(SCc2ccccc2F)o1`, the “hERG current change (%, negative = inhibition) at 10uM” value is -12.4%.

As to `O=C(N/C(=C\c1ccco1)C(=O)N1CCCC1CO)c1ccccc1` (stereo not shown), the “hERG current change (%, negative = inhibition) at 10uM” value turned out to be 11.5%.

As for `CSCCC(NC(=O)c1ccc([N+](=O)[O-])cc1Cl)C(=O)OCC(=O)N1CCN(C(C)=O)CC1` (stereo not shown), the “hERG current change (%, negative = inhibition) at 10uM” value is on record as 3.12%.

For the compound `O=C(NCCCO)c1ccc(CSc2nc3ccccc3c(=O)[nH]2)cc1`, the “hERG current change (%, negative = inhibition) at 10uM” value was -18.3%.

For `CN(C)c1cccc(C(=O)NNC(=O)CSc2ccccc2)c1`, the “hERG current change (%, negative = inhibition) at 10uM” value is given as 19.6%.

Take `O=C(Nc1cccc(F)c1)c1cc(S(=O)(=O)NCCC2=CCCCC2)ccc1F`: the “hERG current change (%, negative = inhibition) at 10uM” value came out at 17.4%.

With `COc1ccc(/C=N/NC(=O)c2cccnc2)cc1CN1CCc2cc(OC)c(OC)cc2C1C` (stereo not shown), the “hERG current change (%, negative = inhibition) at 10uM” value is -40.9%.

As to `COc1ccccc1S(=O)(=O)Cc1ccc(C(=O)NCCN(C)C)o1`, the “hERG current change (%, negative = inhibition) at 10uM” value is -3.17%.

Consider `O=C(Cc1ccccc1)c1ccc2c(c1)OCCO2`, for which the “hERG current change (%, negative = inhibition) at 10uM” value is -1.42%.

In the case of `CN1C2CCC1CC(OC(=O)c1ccc(Cl)cc1)(C(=O)O)C2.Cl` (stereo not shown), the “hERG current change (%, negative = inhibition) at 10uM” value turned out to be 1.82%.

Regarding `COc1ccccc1N1C(=O)c2ccc(C(=O)Nc3ccccc3O)cc2C1=O`, the “hERG current change (%, negative = inhibition) at 10uM” value was 12.5%.

As for `CCN(CC(=O)N1CCc2ccccc2C1)S(=O)(=O)c1ccc2ccccc2c1`, the “hERG current change (%, negative = inhibition) at 10uM” value is reported as -32.2%.

Take `c1ccc2[nH]c(NCCCN3CCOCC3)nc2c1`: the “hERG current change (%, negative = inhibition) at 10uM” value is reported as -6.61%.

On to `Nc1ccc(C(=O)O)cc1[N+](=O)[O-]`, for which the “hERG current change (%, negative = inhibition) at 10uM” value came out at 11.7%.

Consider `COc1ccc(/C=N/NC(=O)c2cccc(C(=O)N/N=C/c3ccc(OC)cc3)n2)cc1`, for which the “hERG current change (%, negative = inhibition) at 10uM” value came out at 19%.

In the case of `O=C(Nc1ccc(F)c(F)c1)c1ccc(-n2cncn2)c([N+](=O)[O-])c1`, the “hERG current change (%, negative = inhibition) at 10uM” value is recorded as -35.7%.

As for `CCOC(=O)c1c(S(=O)(=O)NCC(=O)Nc2ccc(F)cc2F)c(C)n(C)c1C`, the “hERG current change (%, negative = inhibition) at 10uM” value turned out to be 2.01%.

Turning to `Cc1cccc(OCCCC(=O)Nc2ccccc2C(F)(F)F)c1`, the “hERG current change (%, negative = inhibition) at 10uM” value was determined as 1.44%.

On to `Cc1ccc(NC(=O)C[n+]2ccn(C3=C([O-])c4ccccc4C3=O)c2)cc1`, for which the “hERG current change (%, negative = inhibition) at 10uM” value is on record as 21.5%.

Take `COc1ccc(S(=O)(=O)NNC(=O)c2ccccc2-n2cccc2)cc1`: the “hERG current change (%, negative = inhibition) at 10uM” value was found to be 9.16%.

`CNC(C(=O)c1ccccc1)C(OC)c1ccc(C)cc1.[O-][Cl+3]([O-])([O-])O` (stereo not shown): the “hERG current change (%, negative = inhibition) at 10uM” value is 8.84%.

Turning to `O=C(O)c1ccc(/C=N/Nc2ccc(Cl)nn2)cc1`, the “hERG current change (%, negative = inhibition) at 10uM” value worked out at 20.9%.

On to `O=C(Nc1ccc(C(=O)NCc2ccccc2)cc1)C1=CSCCO1`, for which the “hERG current change (%, negative = inhibition) at 10uM” value was 21.8%.

As for `CCOc1cc(NC(=S)NCc2ccccc2)c(OCC)cc1NC(=O)C(C)C`, the “hERG current change (%, negative = inhibition) at 10uM” value is reported as 13.6%.

As for `COc1cccc(OCCNC(=O)CSc2ccc(C(F)(F)F)cc2[N+](=O)[O-])c1`, the “hERG current change (%, negative = inhibition) at 10uM” value is reported as 10.5%.

Regarding `COC(=O)c1cc(C(=O)OCC(=O)NCc2cccs2)cc([N+](=O)[O-])c1`, the “hERG current change (%, negative = inhibition) at 10uM” value is on record as -19%.

As to `FC(F)Oc1ccc(NC(=S)Nn2cnnc2)cc1`, the “hERG current change (%, negative = inhibition) at 10uM” value is -9.86%.

`C=CCN(CC=C)C(=O)c1cc2ccccc2c(=O)o1`: the “hERG current change (%, negative = inhibition) at 10uM” value is -4.56%.

Turning to `CCN1CCC2(CC1)C(C#N)=C(N)Oc1c2sc2nc(C)cc(C)c12`, the “hERG current change (%, negative = inhibition) at 10uM” value is on record as -45.5%.

Take `COc1ccc2[nH]c(C(=O)Nc3ncc(C)cc3Br)cc2c1`: the “hERG current change (%, negative = inhibition) at 10uM” value was 2.5%.

`O=C(NN=C1CCCC1)c1ccc(Br)cc1`: the “hERG current change (%, negative = inhibition) at 10uM” value is listed as 6.05%.

`Cn1nc(C(F)(F)F)c(-c2cccc(C(F)(F)F)c2)c1NC(=O)Nc1ccc(F)cc1`: the “hERG current change (%, negative = inhibition) at 10uM” value is listed as 7.44%.

For the compound `COc1ccc(CN2CCCCCC2)cc1`, the “hERG current change (%, negative = inhibition) at 10uM” value is given as -10.9%.

As for `CC(=O)Nc1ccc(/C=N/OCC(=O)Nc2ccc(C)cc2)cc1`, the “hERG current change (%, negative = inhibition) at 10uM” value is -7.94%.

Turning to `Cc1nn2c(-c3ccc(F)cc3)ccnc2c1Br`, the “hERG current change (%, negative = inhibition) at 10uM” value came to 9.61%.

Consider `CCCC(=O)N(CCN1CCOCC1)c1nc2c(OCC)cccc2s1.Cl`, for which the “hERG current change (%, negative = inhibition) at 10uM” value came to 9.08%.

For `Cc1ccc(-n2nc(C)c3c2OC(N)=C(C#N)C3c2ccco2)cc1` (stereo not shown), the “hERG current change (%, negative = inhibition) at 10uM” value is recorded as 9.96%.

For the compound `CSc1nnc(-c2cccc(NC(=S)NN)c2)o1`, the “hERG current change (%, negative = inhibition) at 10uM” value is 14.7%.

On to `COc1cccc(/C=C(/C(=O)OCC(=O)NC2CCCCCCC2)c2ccccc2)c1`, for which the “hERG current change (%, negative = inhibition) at 10uM” value is -4.41%.

In the case of `CC(=O)Nc1ccc(C(=O)NNC(=O)c2cc([N+](=O)[O-])cc([N+](=O)[O-])c2)cc1`, the “hERG current change (%, negative = inhibition) at 10uM” value came out at 21.3%.

On to `COc1ccc(C2C(C#N)=C(/N=C/N3CCOCC3)OC3=C2C(=O)CC(C)(C)C3)cc1OC` (stereo not shown), for which the “hERG current change (%, negative = inhibition) at 10uM” value was -13.5%.

`O=C(CCCC(=O)N(CC(=O)NC1CCCCC1)c1cccc(F)c1)Nc1ccccn1`: the “hERG current change (%, negative = inhibition) at 10uM” value is -55.3%.

For the compound `CCOC(=O)C1CCN(S(=O)(=O)c2ccc(Cl)s2)CC1`, the “hERG current change (%, negative = inhibition) at 10uM” value is given as -13.3%.
